Assay results: the antibiotic and cytotoxicity screens of Wong et al. (2023)
Some of the results follow.

system: S. aureus RN4220; experiment: growth inhibition call (relative growth <= 0.2); details: 50 µM

Growth inhibition call, inactive:
O=C(C[C@H]1C[C@H]2c3cc(NC(=O)Nc4ccccc4)ccc3O[C@H]2[C@H](CO)O1)NCCN1CCCCC1, Cc1ccc(S(=O)(=O)Nc2ccc3c(c2)C(=O)N(C)[C@H]2CC[C@H](CC(=O)NCCc4ccncc4)O[C@H]2CO3)cc1, Cc1ccc(-c2nn[nH]n2)n1C, C[C@@H]1CCCCO[C@H](CN(C)C(=O)Nc2ccc(F)cc2)[C@H](C)CN([C@@H](C)CO)C(=O)c2cc(NC(=O)Nc3cccc4ccccc34)ccc2O1, C[C@H]1CCCN(S(=O)(=O)CCN)C1, C[C@@H]1CN([C@@H](C)CO)C(=O)c2cc(NS(=O)(=O)c3ccccc3)ccc2O[C@@H]1CN(C)C(=O)Nc1cccc2ccccc12, COc1ccccc1CNC(=O)C[C@H]1C[C@H]2c3cc(NC(=O)c4cccnc4)ccc3O[C@H]2[C@H](CO)O1, C[C@@H]1CCCCO[C@H](CN(C)C(=O)C2CCCCC2)[C@@H](C)CN([C@@H](C)CO)C(=O)c2cc(NC(=O)Cc3ccccc3)ccc2O1, COC(=O)c1c2oc(c1C(=O)OC)C(=O)N[C@H](Cc1ccccc1)Cn1cc(nn1)[C@H](Cc1ccccc1)NC(=O)N[C@@H](CO)CC2, C[C@@H]1CN([C@@H](C)CO)S(=O)(=O)c2ccc(C#Cc3ccncc3)cc2O[C@H]1CN(C)S(=O)(=O)c1ccc(F)cc1, O=C/C=C/c1ccc(Cl)cc1, C[C@H](CO)N1C[C@H](C)[C@@H](CN(C)C(=O)Nc2cccc3ccccc23)OCCCC[C@H](C)Oc2ccc(NC(=O)Nc3ccc(C(F)(F)F)cc3)cc2C1=O, C[C@H](CO)N1C[C@H](C)[C@H](CN(C)S(=O)(=O)c2cn(C)cn2)Oc2ccc(NC(=O)NC3CCCCC3)cc2CC1=O, COCCNC(=O)C[C@@H]1CC[C@H]2[C@@H](COC[C@@H](O)CN2C(=O)Nc2ccccc2OC)O1, CO[C@H]1CN(C)C(=O)c2ccc(NS(=O)(=O)CC(F)(F)F)cc2OC[C@H](C)N(Cc2ccccn2)C[C@@H]1C, CC(C)(O)c1ccccc1CCC(SCC1(CC(=O)[O-])CC1)c1cccc(C=Cc2ccc3ccc(Cl)cc3n2)c1.[Na+] (stereo not given), C[C@H]1CCCCO[C@H](CN(C)S(=O)(=O)c2cccs2)[C@@H](C)CN([C@@H](C)CO)C(=O)c2cc(NC(=O)Nc3ccccc3)ccc2O1, O=C1O[C@H](c2ccccc2)[C@H](c2ccccc2)N2[C@H]1[C@@H](C(=O)N1CCCCCCC1)[C@]1(C(=O)Nc3ccc(C#CCCO)cc31)[C@H]2c1ccc(OCCO)cc1, CCn1c(-n2nc(C)cc2C)nc2c1c(=O)n(CC(N)=O)c(=O)n2C, C[C@H](CO)N1C[C@H](C)[C@H](CN(C)Cc2ccccc2)Oc2c(NC(=O)C3CCOCC3)cccc2C1=O, O=C(C[C@@H]1CC[C@@H](NC(=O)CN2CCOCC2)[C@@H](CO)O1)NCc1cccc(F)c1, C[C@@H]1CN([C@H](C)CO)C(=O)c2cc(NS(=O)(=O)c3cn(C)cn3)ccc2O[C@@H](C)CCCCO[C@H]1CN(C)C(=O)Nc1ccc(C(F)(F)F)cc1, C[C@@H]1CN([C@H](C)CO)C(=O)c2cccc(NS(=O)(=O)c3cn(C)cn3)c2O[C@@H]1CN(C)Cc1ccc(C(=O)O)cc1, O=C1C=CC(O)(CC(=O)OC[C@H]2O[C@@H](OC(=O)CC3(O)C=CC(=O)C=C3)[C@H](O)[C@@H](O)[C@H]2O)C=C1, C[C@@H]1CN([C@H](C)CO)C(=O)c2cc(NC(=O)Nc3ccc(F)cc3)ccc2O[C@@H](C)CCCCO[C@H]1CN(C)Cc1ccncc1, O=C(Cc1ccncc1)Nc1ccc2c(c1)[C@@H]1C[C@@H](CC(=O)N3CCc4ccccc4C3)O[C@H](CO)[C@@H]1O2, CCOC(=O)N1CCC(O)CC1, C[C@H](CO)N1C[C@H](C)[C@H](CN(C)S(=O)(=O)c2ccc(F)cc2)Oc2c(NC(=O)c3cnccn3)cccc2C1=O, C[C@@H]1CN([C@@H](C)CO)C(=O)c2cc(NS(C)(=O)=O)ccc2O[C@H]1CN(C)Cc1ccc(C(=O)Nc2ccccc2N)cc1, COc1ccc(NC(=O)N(C)C[C@@H]2OCCCC[C@H](C)Oc3ccc(NS(=O)(=O)c4c(C)noc4C)cc3C(=O)N([C@@H](C)CO)C[C@H]2C)cc1, O=C(C[C@H]1CC[C@@H]2[C@H](COC[C@@H](O)CN2S(=O)(=O)c2ccccc2Cl)O1)NCc1ccccc1Cl, C[C@@H]1CCCCO[C@@H](CN(C)Cc2ccncc2)[C@H](C)CN([C@H](C)CO)C(=O)c2cc(NC(=O)c3ccccc3)ccc2O1, C[C@@H]1CN([C@@H](C)CO)C(=O)c2cc(-c3cccc(C#N)c3)cnc2O[C@H]1CN(C)C(=O)c1cnccn1, NCc1ccoc1, C[C@H](CO)N1C[C@H](C)[C@@H](CN(C)Cc2cncnc2)Oc2cc(C#CC3CCCC3)ccc2S1(=O)=O, COc1ccc(CN(C)C[C@@H]2OCCCC[C@@H](C)Oc3ccc(NC(=O)Nc4c(C)noc4C)cc3C(=O)N([C@H](C)CO)C[C@H]2C)cc1, C[C@@H]1CN([C@H](C)CO)C(=O)c2cc(NS(=O)(=O)c3cccs3)ccc2O[C@H]1CN(C)S(C)(=O)=O, OC1CCOCC1, COCC#Cc1ccc2c(c1)O[C@H](CN(C)Cc1ccc(F)cc1)[C@@H](C)CN([C@@H](C)CO)S2(=O)=O, C[C@H]1CN([C@@H](C)CO)C(=O)c2cc(NS(=O)(=O)c3cn(C)cn3)ccc2O[C@@H]1CN(C)Cc1ccc(C(=O)Nc2ccccc2N)cc1
